Test results published in PubChem BioAssay AID1468 (National Center for Advancing Translational Sciences (NCATS), 2008).
“And” between values parts separate entries of the source, which are not always exact repeats. Equal values may be shown once. The campaign covered roughly 280,000 compounds. About 1,100 (0.39%) were called active. This list was built around the results that the source calls inconclusive (neither active nor inactive); the mix of calls is not that of the screen. The call rests on the fitted dose curve; in most records, active means well fitted inhibition curve with a large enough effect; inconclusive means small, poorly fitted or top-dose-only effect, or effect the other way; inactive means flat fitted curve, though single readings scatter. Potencies beside an inconclusive call are fits to weak or partial responses and may not hold up.

Target: Microtubule-associated protein tau (Homo sapiens) (UniProt P10636)
UniProt P10636, sequence (P10636 whole entry, looked up): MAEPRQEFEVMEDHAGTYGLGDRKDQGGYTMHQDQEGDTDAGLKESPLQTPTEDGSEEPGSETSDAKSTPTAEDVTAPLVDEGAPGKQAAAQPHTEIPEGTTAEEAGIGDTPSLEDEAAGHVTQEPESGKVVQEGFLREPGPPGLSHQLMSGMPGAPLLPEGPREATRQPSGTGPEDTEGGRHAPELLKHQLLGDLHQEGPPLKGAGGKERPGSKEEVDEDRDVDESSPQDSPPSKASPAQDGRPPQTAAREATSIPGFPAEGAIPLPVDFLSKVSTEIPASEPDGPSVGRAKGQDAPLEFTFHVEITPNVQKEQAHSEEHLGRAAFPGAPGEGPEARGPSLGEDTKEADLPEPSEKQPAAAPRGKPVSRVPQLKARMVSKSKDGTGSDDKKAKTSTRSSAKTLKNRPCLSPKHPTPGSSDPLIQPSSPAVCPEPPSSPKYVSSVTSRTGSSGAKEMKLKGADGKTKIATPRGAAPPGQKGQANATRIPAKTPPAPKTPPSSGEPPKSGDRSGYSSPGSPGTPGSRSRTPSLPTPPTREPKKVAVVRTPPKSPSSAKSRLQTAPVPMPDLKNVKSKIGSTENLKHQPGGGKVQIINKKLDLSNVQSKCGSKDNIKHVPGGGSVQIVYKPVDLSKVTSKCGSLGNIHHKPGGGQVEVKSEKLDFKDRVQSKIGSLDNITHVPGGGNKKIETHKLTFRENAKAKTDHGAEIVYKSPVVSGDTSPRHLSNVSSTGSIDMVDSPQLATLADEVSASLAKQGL
Assay: qHTS for Inhibitors of Tau Fibril Formation, Fluorescence Polarization; further: nearly all actives have a fitted effect of over 55% in size
Conditions: K18 P301L tau heparin fibrillization, Alexa594 FP, 6 h; series mostly up to 57.7 µM; activity, negative = inhibition: at the top concentration
Outline: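 Recombinant K18 P301L […], labeled with Alexa 594 at 0.24 uM over 15 uM unlabeled; heparin inducer 20 uM final; 37 C, 6 hr; FP endpoint.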
On the % scale 0 is the no-effect control and ±100 the full control effect; potency means the concentration at half of the fitted maximal effect; tags describe the fitted curve by direction and shape.

Row | SMILES | activity, negative = inhibition | Potency
1 | CCOc1ccc(NC(=O)N2CCC(CN3CCCCCC3)CC2)cc1 | inactive: -13.7% | –
2 | Cc1cc(C)cc(NC(=O)CSc2oc(-c3ccco3)nc2S(=O)(=O)c2ccccc2)c1 | – | inconclusive: 7.94 µM [inhibitor, full curve]
3 | O=C(Nc1ccccc1OCc1cc(=O)n2ccccc2n1)c1cccc(Br)c1 | inactive: -4.4% | –
4 | CC(=O)N1CCc2c(sc3nc(SCC(N)=O)n(-c4ccc(F)c(Cl)c4)c(=O)c23)C1 | inactive: -8.7% | –
5 | Cc1ccc(CCNC(=O)CCCn2c(=O)c3ccccc3n(CC(=O)Nc3cc(Cl)ccc3C)c2=O)cc1 | – | inconclusive: 11.2 µM [inhibitor, partial curve]
6 | CCOc1cccc(-c2nnc3n2N=C(c2cc(OC)ccc2OC)CS3)c1 | – | inconclusive: 7.94 µM [activator, single point]
7 | CCS(=O)(=O)CCSc1nc(C)cc(C)c1C#N | inactive: 13.1% | –
8 | COc1cc2ncnc(Nc3cccc(Cl)c3)c2cc1OC | – | inconclusive: 17.8 µM [inhibitor, partial curve] and inconclusive: 8.91 µM [inhibitor, partial curve]
9 | COCCCNC(=S)Nc1cc(C)c(C)cc1C | inactive: 0.201% | –
10 | O=C1NC(=S)S/C1=C1\Sc2ccccc2N1CCCS(=O)(=O)O | inactive: -2.11% | –
11 | CC(=O)c1cccc(NC(=O)c2ccc3c(=O)n4c(nc3c2)CCCCC4)c1 | inactive: -8.22% | –
12 | COCCn1c(C)cc(O)c(C(c2ccccc2)N2CCN(CCO)CC2)c1=O (stereo not drawn) | – | inconclusive: 25.1 µM [inhibitor, single point]
13 | NNc1nnc(NN)c2ccccc12 | – | inconclusive: 44.7 µM [inhibitor, single point]
14 | O=C(CS(=O)(=O)Cc1ccccc1)Nc1ccc(Cl)cn1 | inactive: -4.65% | –
15 | COc1ccccc1C(=O)n1nc(-c2cccnc2)nc1NCc1ccccc1 | – | inconclusive: 6.31 µM [activator, full curve, poor fit]
16 | CC1=C(c2ccc(C(C)C)cc2)S(=O)(=O)N=C1N1CCN(c2ccc(F)cc2)CC1 | – | inconclusive: 39.8 µM [inhibitor, single point]
17 | O=C(NCCCN1CCOCC1)c1ccc(Sc2cccc(Cl)c2)c([N+](=O)[O-])c1 | – | inconclusive: 22.4 µM [activator, single point]
18 | c1ccc(Cn2nnc(CNc3ccccc3)c2-c2c(CNc3ccccc3)nnn2Cc2ccccc2)cc1 | inactive: 4.69% | –
19 | S=c1[nH]nc(-c2cccc(Br)c2)o1 | inactive: 9.25% | –
20 | CSCCOC(=O)COc1ccc(/C=N/NC(=O)c2nn(C)cc2Cl)cc1 | – | inconclusive: 0.1 µM [inhibitor, full curve, poor fit]
21 | Cc1ccc(/C=N/n2c(-c3ccncc3)n[nH]c2=S)s1 | inactive: 1.5% | –
22 | CCOc1ccc(NC(=O)CN2CCN(CC(=O)Nc3ccc(N(CC)CC)cc3)CC2)cc1 | inactive: 8.13% | –
23 | CCOC(=O)c1ccc(NC(=O)c2c(NC(=O)CCC(=O)O)sc3c2CCCCC3)cc1 | inactive: -14.7% | –

Row | SMILES | activity, negative = inhibition | Potency
24 | Cc1[nH]nc2c1C1(CCN(Cc3ccccc3)CC1)C(C#N)=C(N)O2 | – | inconclusive: 22.4 µM [inhibitor, single point]
25 | O=c1cc(-c2ccc(O)cc2)oc2c(O)c(O)c(O)c(O)c12 | – | inconclusive: 20 µM [inhibitor, partial curve]
26 | O=C(N/N=C/c1ccc2c(c1)OCO2)c1cc2ccccc2o1 | inactive: -14.1% | –
27 | COc1cccc2c1Oc1ncccc1N(c1ccc(C(=O)NCc3ccccc3C)s1)C2 | – | inconclusive: 44.7 µM [activator, single point]
28 | Cc1ccc(NC2=C(N3CCOCC3)C(=O)c3ccccc3C2=O)cc1 | – | inconclusive: 35.5 µM [inhibitor, single point]
29 | CCOC(=O)C1CCCN(C(=O)CSCc2ccccc2)C1 (stereo not drawn) | inactive: 3.58% | –
30 | COc1cc(NC(=O)Cn2nc(C(F)(F)F)c(Br)c2C)cc([N+](=O)[O-])c1 | – | inconclusive: 39.8 µM [inhibitor, single point]
31 | COc1cc(C(c2c(C)[nH][nH]c2=O)c2c(C)[nH][nH]c2=O)cc([N+](=O)[O-])c1O | – | inconclusive: 10 µM [inhibitor, partial curve]
32 | CCc1ccc(C2=C(C)C(N3CCC(C(=O)Nc4cccc(OC)c4)CC3)=NS2(=O)=O)cc1 | – | inconclusive: 0.0447 µM [inhibitor, full curve, poor fit]
33 | CCC(C)Nc1nc(Cl)nc(N(C#N)CN2C(=O)c3ccccc3S2(=O)=O)n1 (stereo not drawn) | – | inconclusive: 44.7 µM [inhibitor, single point]
34 | Oc1ccc(/C=C/c2nc(-c3ccccc3O)n(-c3ccccc3)n2)c(O)c1 | – | inconclusive: 39.8 µM [inhibitor, single point]
35 | COCCn1c(-c2cccs2)csc1=Nc1cccnc1 | – | inconclusive: 20 µM [inhibitor, single point]
36 | Clc1cccc(-n2ncc3c(NCCc4ccccc4)ncnc32)c1 | – | inconclusive: 14.1 µM [inhibitor, partial curve]
37 | O=C(Nc1cccc(NC(=S)NC(=O)c2cccs2)c1)c1ccccc1 | – | inconclusive: 44.7 µM [inhibitor, partial curve, poor fit]
38 | O=C(Cn1sc2ccccc2c1=O)NC12CC3CC(CC(C3)C1)C2 | – | active: 20 µM
39 | COc1ccc(S(=O)(=O)n2nc(OC(=O)c3cccs3)cc2NC(=O)c2cccs2)cc1 | – | inconclusive: 2.51 µM [inhibitor, single point]
40 | CCCCC(=O)OC1CCC2C3CCc4cc(O)ccc4C3CC[C@]12C (stereo partly drawn) | – | inconclusive: 2 µM [inhibitor, partial curve]
41 | CCOc1ccc(NC2=C(OC)C(=O)c3ccccc3C2=O)cc1 | – | inconclusive: 15.8 µM [inhibitor, partial curve]
42 | COc1ccc(CC(=O)NNC(=S)NC(=O)c2cccnc2)cc1 | inactive: -6.54% | –
43 | Cc1ccccc1Oc1cc(-n2ncc(Cl)c(Cl)c2=O)ncn1 | – | inconclusive: 6.31 µM [inhibitor, full curve]
44 | CC(=O)Nc1cccc(Nc2nc(-c3ccccc3)nc3ccccc23)c1 | – | inconclusive: 25.1 µM [inhibitor, partial curve]
45 | Cc1ccccc1C(=O)Nc1nc(-c2ccc(Br)cc2)ns1 | – | inconclusive: 3.55 µM [inhibitor, full curve]
46 | COCCCNC(=O)c1ccc2c(c1)nc1n2CCCCC1 | inactive: -4.55% | –

Row | SMILES | activity, negative = inhibition | Potency
47 | CCN1CC=C2C(C1)C(c1ccc(Cl)s1)C(C#N)=C(N)C2(C#N)C#N (stereo not drawn) | – | inconclusive: 39.8 µM [inhibitor, single point]
48 | Cc1sc2nc(SCC(=O)NCc3cccs3)[nH]c(=O)c2c1C | inactive: -1.07% | –
49 | Cc1noc(Cn2c(=O)c3cc4c(cc3n(CC(=O)Nc3ccccc3F)c2=O)OCO4)n1 | – | inconclusive: 39.8 µM [inhibitor, single point]
50 | O=C(O)Cc1sc(N/N=C\c2ccccc2)nc1-c1ccccc1 | – | inconclusive: 25.1 µM [inhibitor, partial curve]
51 | O=C(CSCc1cnn(-c2ccccc2)c1-n1cccc1)NCc1ccc(F)cc1 | – | inconclusive: 12.6 µM [inhibitor, partial curve]
52 | CCOC(=O)c1ccc(NC(=S)NCCc2ccc(OC)c(OC)c2)cc1 | – | inconclusive: 25.1 µM [inhibitor, single point]
53 | O=C(Nc1cccc(C(F)(F)F)c1)Nc1cccs1 | – | inconclusive: 10 µM [activator, partial curve]
54 | CCOc1ccc(CNC(=O)CCn2c(=O)c3cccn3c3ccc(F)cc32)cc1 | inactive: 2.11% | –
55 | CC(=NC1CC1)c1c(-c2ccccc2)[nH]n(-c2nc3ccccc3s2)c1=O | inactive: -0.629% | –
56 | Cc1cc(N2CCCCC2)nc2ccc(NC(=O)/C=C/c3ccc(OCCC(C)C)cc3)cc12 | – | inconclusive: 3.55 µM [activator, full curve, poor fit]
57 | Cc1cc(C)nc(SCC(=O)c2ccc(O)cc2O)n1 | – | inconclusive: 0.447 µM [inhibitor, single point]
58 | C/C(=N\Nc1nc(Cl)c(Cl)cc1Cl)c1ccc(S(=O)(=O)NCc2ccco2)cc1 | – | inconclusive: 22.4 µM [inhibitor, single point]
59 | CCOC(=O)C(=O)N1CCC(C(=O)OCC)CC1 | – | inconclusive: 8.91 µM [inhibitor, single point]
60 | CN(C)S(=O)(=O)c1ccc(C(=O)NCc2ccc3[nH]c4c(c3c2)CCCC4)cc1 | – | inconclusive: 25.1 µM [activator, single point]
61 | Cc1noc(/C=C/c2ccccc2F)c1S(=O)(=O)N1CCC(C(=O)Nc2ccc(C#N)cc2)CC1 | – | inconclusive: 11.2 µM [inhibitor, partial curve]
62 | COc1cccc(NC(=O)Nc2ccc3nc(N4CCN(C)CC4)cc(C)c3c2)c1 | – | inconclusive: 1.78 µM [activator, partial curve]
63 | CCOc1ccc(CC(=O)C2=C(N3CCOCC3)CC(C)(C)CC2=O)cc1OCC | – | inconclusive: 39.8 µM [inhibitor, single point]
64 | NS(=O)(=O)c1ccc(N/C=C\C(=O)c2cccc3ccccc23)cc1 | – | inconclusive: 39.8 µM [inhibitor, single point]
65 | CCCCCC(=O)Nc1nc(C)c(-c2csc(Nc3cc(OC)ccc3OC)n2)s1 | inactive: 15.2% | –
66 | CCOC(=O)c1ccc(NC(=O)CC2C(=O)N(c3ccccc3)C(=O)N2Cc2ccc(C)cc2)cc1 (stereo not drawn) | – | inconclusive: 22.4 µM [inhibitor, partial curve]
67 | COc1ccc(CCNC(=O)CCCn2c(=O)c3ccccc3n(CC(=O)Nc3cccc(C)c3)c2=O)cc1OC | inactive: -3.07% | –
68 | O=C(COc1ccccc1/C=C1\SC(=O)NC1=O)Nc1ccc(F)cc1 | – | inconclusive: 8.91 µM [activator, single point]
